Laboratory results as given in PubChem BioAssay AID720542 (National Center for Advancing Translational Sciences (NCATS), 2013).
Hit rate of the full screen: of about 360,000 compounds, about 740 (0.21%) were called active. The shares of active, inactive and inconclusive entries below differ from those in the screen. Calls follow the shape of the dose curve; as a rule, active = well fitted inhibition curve with a large enough effect; inconclusive = small, poorly fitted or top-dose-only effect; inactive = no such curve, though single readings can be large or run the other way. No potency is given beside an inconclusive call; the fits are too rough.

Each molecule was assayed on Plasmodium falciparum AMA1 (3D7) - RON2 peptide interaction (assay: qHTS for Inhibitors of AMA1-RON; Towards Development of Antimalarial Drug Lead: Primary Screen). Conditions: AlphaScreen AMA1-biotinylated RON2 peptide binding; activity change, negative = inhibition: at 58.2 µM (top of the series) unless noted.
Procedure, shortened: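 AMA1 (3D7) with his tag at 25 nM final met compounds first, then biotinylated RON2 peptide at 25 nM; detection used donor plus acceptor beads, 10 µg/mL apiece, read by AlphaScreen after 30 min at room temperature.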
Also: nearly all actives have a fitted effect of over 45% in size.
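For activity change, negative = inhibition in this document: 0% = vehicle wells and -100% = peptide control.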
Potency is read from the fitted curve at half-maximal effect; tags tell the direction and shape of the fitted curve.

Row | Structure (SMILES) | Potency | activity change, negative = inhibition
1 | COc1ccccc1Nc1ccc2c(O)cc(S(=O)(=O)O)cc2c1 | active: 20 µM | 
2 | Oc1c(N=Nc2ccccc2)sc2ccccc12 | inconclusive [inhibitor, single point] | 
3 | CO/C=C\C=C/c1nnn(-c2ccc(Cl)cc2)n1 | inconclusive [inhibitor, single point] | 
4 | O=C(O)c1cccc(NC(=S)N/N=C/c2ccccc2OCc2ccc(Br)cc2)c1 |  | inactive: 17.4%
5 | COc1ccc(C)cc1NC(=O)c1cc(S(=O)(=O)N2CCCC2)cn1C |  | inactive: -7.46%
6 | CN(C)c1ccc(C=c2c3ccccc3n3c2c2c([n+]3C)CCCC2)cc1 | inconclusive [inhibitor, partial curve] | 
7 | CCN(CC)c1ccc(/C=N/NS(=O)(=O)c2ccc(C)c([N+](=O)[O-])c2)cc1 | inconclusive [inhibitor, partial curve] | 
8 | CN1CCN(C(=S)c2cn(CCOc3ccccc3F)c3ccccc23)CC1 | inconclusive [inhibitor, single point] | 
9 | COc1cccc(CNC(=O)c2cccc(NC(=O)C3=C(C)OCCS3)c2)c1 |  | inactive: -9.18%
10 | CC(C)C(=O)OCC(=O)Nc1ccc(N=Nc2ccccc2)cc1 | inconclusive [inhibitor, single point] | 
11 | CCOC(=O)COn1c(=O)c[n+]([O-])c2ccccc21 | inconclusive [inhibitor, full curve, poor fit] | 
12 | O=C(Nc1cc(C(F)(F)F)ccc1N1CCCCC1)c1cccc([N+](=O)[O-])c1 | inconclusive [inhibitor, partial curve, poor fit] | 
13 | COCCCN(C(=O)c1ccco1)c1nc(-c2ccc(OC)cc2)cs1 | inconclusive [inhibitor, partial curve] | 
14 | COC(=O)N/N=C/c1cn(CCOc2ccccc2)c2ccccc12 | inconclusive [inhibitor, partial curve] | 
15 | O=C(NC(=S)Nc1ccc([N+](=O)[O-])cc1)c1ccco1 |  | inactive: 20.8%
16 | CCOC(=O)N1CCc2c(sc(N)c2C#N)C1 |  | inactive: 0.0187%
17 | N#Cc1c(/N=C/c2cccs2)sc2c1CCCCC2 | inconclusive [inhibitor, partial curve] | 
18 | COc1ccc(-c2csc(NC(=O)C3=NN(c4ccccc4)C(=O)CC3)n2)cc1 |  | inactive: -2.57%
19 | Cc1nn(-c2ccccc2)c(N2CCCC2)c1/C=N/Nc1ccc(S(=O)(=O)Nc2ccccc2)cc1[N+](=O)[O-] | inconclusive [inhibitor, partial curve] | 
20 | Cc1cccc(N=NC(=S)NNc2cccc(C)c2)c1 | inconclusive [inhibitor, single point] | 
21 | COc1ccccc1CNCc1cccc(Oc2ccccc2)c1 |  | inactive: -4.26%
22 | CCCNC(=O)C1CCN(S(=O)(=O)c2c(C)noc2/C=C\c2ccc(OC)cc2)CC1 |  | inactive: -4.3%

Row | Structure (SMILES) | Potency | activity change, negative = inhibition
23 | COc1ccc(C2/C=C\CN(Cc3ccc(N(C)C)cc3)CC(=O)N2Cc2ccc(F)cc2)cc1 (stereo unspecified) | active: 15.8 µM | 
24 | COc1ccnc(Oc2ccccc2)c1C(N)=O |  | inactive: -17.8%
25 | CCCOc1ccc(N2CC(C(=O)Nc3ccccn3)CC2=O)cc1 (stereo unspecified) | inconclusive [inhibitor, single point] | 
26 | COc1ccc2sc(N(CCCN(C)C)C(=O)c3ccc(S(=O)(=O)N4CCCc5ccccc54)cc3)nc2c1 |  | inactive: -29.1%
27 | O=C(/C=C/c1ccc(Cl)c([N+](=O)[O-])c1)Nc1ccc(N2CCCC2)cc1 | inconclusive [inhibitor, single point] | 
28 | CC1(C(=O)Nc2cccc3c2CCCC3)CCN1C(=O)c1cccc(F)c1 (stereo unspecified) |  | inactive: -5.85%
29 | O=C1SC(SCc2ccccc2)=N/C1=C\c1ccco1 | inconclusive [inhibitor, single point] | 
30 | COc1ccc(N2CCN(C(=O)Cn3nnc(-c4ccccc4N)n3)CC2)cc1 | inconclusive [inhibitor, partial curve] | 
31 | COc1ccc(CNC(=O)C(C)Sc2nc3ccccc3c(=O)n2CCCN2CCOCC2)cc1 (stereo unspecified) | inconclusive [inhibitor, partial curve] | 
32 | O=C(Nc1ccc(Cl)cn1)c1ccc(Br)c(S(=O)(=O)N2CCCCC2)c1 | inconclusive [inhibitor, single point] | 
33 | CCOC(=O)C1CCN(Cc2cccc(Oc3ccc(Cl)cc3)c2)CC1 | inconclusive [inhibitor, partial curve] | 
34 | O=C(c1ccc(F)cc1)N1CCN(c2ccc([N+](=O)[O-])c(N3CCCCC3)c2)CC1 | inconclusive [inhibitor, partial curve] | 
35 | CC1=CC(C)(C)Nc2ccc(OC(=O)CN3C(=O)c4cccc5cccc(c45)C3=O)cc21 | inconclusive [inhibitor, single point] | 
36 | c1cc2c3c(cccc3c1)NC1(CCC3(CC1)Nc1cccc4cccc(c14)N3)N2 | inconclusive [inhibitor, partial curve] | 
37 | C[C@@](Cc1ccc(O)c(O)c1)(NN)C(=O)O | inconclusive [inhibitor, full curve] | 
38 | CC1CCCC(NC(=O)CCNC(=O)c2ccc(Cl)cc2)C1C (stereo unspecified) | inconclusive [inhibitor, single point] | 
39 | Cc1cc(S(=O)(=O)N(Cc2ccccc2)Cc2ccc(N(C)C)cc2)ccc1-n1cnnn1 | inconclusive [inhibitor, partial curve] | 
40 | O=C(Nc1cnccn1)c1csc2ccccc12 | inconclusive [inhibitor, single point] | 
41 | COc1ccc(N2CCN(C(=O)c3cn(C4CCCC4)c(=O)c4c3c3ccccc3n4C)CC2)cc1 | active: 14.1 µM | 
42 | COc1ccc2c(c1)-c1c(ssc1=S)C(C)(C)N2S(=O)(=O)c1ccc(C)cc1 | inconclusive [inhibitor, partial curve] | 
43 | O=C(C1CCCN(Cc2ccccc2C(F)(F)F)C1)N1CCCCC1 (stereo unspecified) | inconclusive [inhibitor, single point] | 
44 | Cc1cc2ccccc2n1CCNC(=O)COc1ccccc1 | inconclusive [inhibitor, single point] | 

Row | Structure (SMILES) | Potency | activity change, negative = inhibition
45 | O[C@@H]([C@H](O)[C@H](O)CBr)[C@H](O)CBr | inconclusive [inhibitor, single point] | 
46 | COc1ccc(-c2[nH]c(-c3ccc(C)cc3)nc2SCC(=O)NC2CCCC2)cc1 | inconclusive [inhibitor, single point] | 
47 | Cn1/c(=N\NC(=O)c2ccccc2Cl)sc2ccccc21 | inconclusive [inhibitor, single point] | 
48 | COc1ccc(C(=O)OCC(=O)c2ccc[nH]2)c(OC)c1 |  | inactive: 9.59%
49 | COc1ccc(-n2nc([N+](=O)[O-])c(=NCCC3=CCCCC3)n2O)cc1 | active: 15.8 µM | 
50 | O=C(COc1cccnc1[N+](=O)[O-])NCc1ccco1 | inconclusive [inhibitor, partial curve, poor fit] | 
51 | COc1cccc(Nc2nc(-c3sc(C)nc3C)cs2)c1 | inconclusive [inhibitor, single point] | 
52 | O=C(CSc1nc2ccccc2o1)N1CCN(c2ccc(Cl)cc2)CC1 |  | inconclusive: -6.87% [inhibitor]
53 | CCNC(=O)C1CCCN(C(=O)c2ccc(OC)c(OC)c2)CC1 (stereo unspecified) |  | inactive: 3.76%
54 | O=[N+]([O-])c1nn(-c2ccccc2)[n+]([O-])c1N1CCN(c2ccccc2F)CC1 | inconclusive [inhibitor, partial curve] | 
55 | O=C(CN1C(=O)CCS(=O)(=O)c2ccccc21)Nc1cccc(Cl)c1 |  | inactive: -1.02%
56 | CN(C)CCCN(C(=O)c1ccc2c(c1)CCCC2)c1nc2c(F)cccc2s1 | inconclusive [inhibitor, single point] | 
57 | Oc1c(Cl)cc(Cl)cc1CNc1ccc(Br)cn1 |  | inactive: 19%
58 | C(=Nc1ccc(Nc2ccccc2)cc1)c1ccc2ccccc2c1 | inconclusive [inhibitor, single point] | 
59 | C#CCOCCOCCOCCNc1nc(N2CCN(C(=O)CCCCCCCCCCNC(=O)[C@H](CO)n3cc(CCCSC)nn3)CC2)nc(N2CCN(C(=O)CCCCCCCCCCNC(=O)[C@H](CCCN=C(N)N)n3cc(C[C@@H](C)CC)nn3)CC2)n1 | inconclusive [inhibitor, single point] | 
60 | COc1ccc(N2CCN(C(=O)C(Cc3ccccc3)n3cccc3)CC2)cc1 (stereo unspecified) | inconclusive [inhibitor, partial curve] | 
61 | O=C(O)COc1ccccc1/C=C1\SC(=S)N(NC(=O)c2ccccc2O)C1=O | inconclusive [inhibitor, single point] | 
62 | CSc1cccc(CN2CCC(Oc3cccc(C(=O)N4CCCC4)c3)CC2)c1 | inconclusive [inhibitor, partial curve] | 
63 | CCOC(=O)C1CCCN(Cc2ccc(-c3ccccc3)cc2)C1 (stereo unspecified) | inconclusive [inhibitor, partial curve] | 
64 | O=C(N/N=C/c1ccc(O)cc1O)C(=O)N/N=C/c1ccc(O)cc1O | inconclusive [inhibitor, partial curve, poor fit] | 
65 | CCOC(=O)CCCCC(=O)c1[nH]c(=O)[nH]c1CSc1nc(-c2ccccc2)c(C#N)c(=O)[nH]1 | inconclusive [inhibitor, single point] | 
66 | CCn1c(SCC(=O)Nc2ccc3c(c2)oc2ccccc23)nnc1-c1ccc(N)cc1 | inconclusive [inhibitor, single point] | 
